Assay results taken from publication PMC12820563, “FoxP3 forms a head-to-head dimer in vivo and stabilizes its multimerization on adjacent microsatellites”.
This is one part of the list.

The sequences below were run against T1, MBP-FoxP1dN (Mus musculus, UniProt P58462 326-579) (assay: PD-seq (MBP pull-down with sequencing); 20 mM Tris-HCl pH 7.5, 100 mM NaCl, 1.5 mM MgCl2, 0.4 uM protein, 0.1 uM dsDNA library, 30 min, room temperature, amylose pull-down; high values mean tight binding). Conditions: protein: recombinant; tags: His6-MBP; chain copies: 2; dsDNA, one strand shown.
T1 sequence: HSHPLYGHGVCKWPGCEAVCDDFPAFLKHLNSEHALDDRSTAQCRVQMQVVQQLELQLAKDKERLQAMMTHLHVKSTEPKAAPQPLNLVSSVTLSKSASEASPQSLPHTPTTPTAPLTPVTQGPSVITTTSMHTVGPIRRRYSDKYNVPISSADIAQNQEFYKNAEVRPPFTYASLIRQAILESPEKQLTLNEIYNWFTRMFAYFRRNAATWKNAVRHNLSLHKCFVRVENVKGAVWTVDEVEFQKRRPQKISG
Summary of the method: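 A fragment of mouse FoxP3 or FoxP1 without its N-terminus, carrying a His6-MBP tag and produced in E. coli, was combined at 0.4 µM with a 0.1 µM degenerate double-stranded DNA library filled in with Klenow. The mixture sat for 30 min at room temperature in Tris pH 7.5 buffer containing NaCl and MgCl2. Protein–DNA complexes were captured on amylose resin, washed three times, and the DNA was freed with proteinase K, barcoded by PCR and sequenced on Illumina. Binding is expressed as reads-per-million enrichment of pull-down over input, with replicates pooled.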
In the case of “GATGATTGTTCTCCCAGCTGATGAATTGAGGCGTTCGAGTAAACAAATTTTCCTAATCTTTCTGTTCAAGCGCCATCTAC”, the binding signal is reported as 0.946 RPM ratio (pull-down/input).
In the case of “GATGATTGTTCTCCCAGCTGATGAATTCGTAATCTCGAGTAAACAAATTTTCCTAATCTTTCTGTTCAAGCGCCATCTAC”, the binding signal is reported as 0.951 RPM ratio (pull-down/input).
“GATGATTGTTCTCCCAGCTGATGAATTCGTTAGTTCGAGTAAACAAATTTTCCTAATCTTTCTGTTCAAGCGCCATCTAC” was tested, and the binding signal was 0.899 RPM ratio (pull-down/input).
In the case of “GATGATTGTTCTCCCAGCTGATGAATTTGAACCTTCGAGTAAACAAATTTTCCTAATCTTTCTGTTCAAGCGCCATCTAC”, the binding signal is reported as 0.834 RPM ratio (pull-down/input).
“GATGATTGTTCTCCCAGCTGATGAATTTCCCATATCGAGTAAACAAATTTTCCTAATCTTTCTGTTCAAGCGCCATCTAC” was tested, and the binding signal was 0.915 RPM ratio (pull-down/input).
For “GATGATTGTTCTCCCAGCTGATGAATTGAGTTCGTCGAGTAAACAAATTTTCCTAATCTTTCTGTTCAAGCGCCATCTAC”, the binding signal was 0.82 RPM ratio (pull-down/input).
In the case of “GATGATTGTTCTCCCAGCTGATGAATTTCTATCCTCGAGTAAACAAATTTTCCTAATCTTTCTGTTCAAGCGCCATCTAC”, the binding signal is reported as 0.887 RPM ratio (pull-down/input).
“GATGATTGTTCTCCCAGCTGATGAATTATCTATTTCGAGTAAACAAATTTTCCTAATCTTTCTGTTCAAGCGCCATCTAC” was tested, and the binding signal was 1.03 RPM ratio (pull-down/input).
With “GATGATTGTTCTCCCAGCTGATGAATTCGTTACCTCGAGTAAACAAATTTTCCTAATCTTTCTGTTCAAGCGCCATCTAC” the binding signal was 0.98 RPM ratio (pull-down/input).
With “GATGATTGTTCTCCCAGCTGATGAATTGTGTCCCTCGAGTAAACAAATTTTCCTAATCTTTCTGTTCAAGCGCCATCTAC” the binding signal was 1.12 RPM ratio (pull-down/input).
With “GATGATTGTTCTCCCAGCTGATGAATTTAATAGTTCGAGTAAACAAATTTTCCTAATCTTTCTGTTCAAGCGCCATCTAC” the binding signal was 0.986 RPM ratio (pull-down/input).
In the case of “GATGATTGTTCTCCCAGCTGATGAATTTACGGTTTCGAGTAAACAAATTTTCCTAATCTTTCTGTTCAAGCGCCATCTAC”, the binding signal is reported as 1.24 RPM ratio (pull-down/input).
With “GATGATTGTTCTCCCAGCTGATGAATTGGCCCTATCGAGTAAACAAATTTTCCTAATCTTTCTGTTCAAGCGCCATCTAC” the binding signal was 0.846 RPM ratio (pull-down/input).
“GATGATTGTTCTCCCAGCTGATGAATTCGGTTATTCGAGTAAACAAATTTTCCTAATCTTTCTGTTCAAGCGCCATCTAC” was tested, and the binding signal was 0.93 RPM ratio (pull-down/input).
In the case of “GATGATTGTTCTCCCAGCTGATGAATTAGCCTTCTCGAGTAAACAAATTTTCCTAATCTTTCTGTTCAAGCGCCATCTAC”, the binding signal is reported as 0.881 RPM ratio (pull-down/input).
For “GATGATTGTTCTCCCAGCTGATGAATTAGGAGCCTCGAGTAAACAAATTTTCCTAATCTTTCTGTTCAAGCGCCATCTAC”, the binding signal was 0.863 RPM ratio (pull-down/input).
With “GATGATTGTTCTCCCAGCTGATGAATTTTGTCCATCGAGTAAACAAATTTTCCTAATCTTTCTGTTCAAGCGCCATCTAC” the binding signal was 1.02 RPM ratio (pull-down/input).
With “GATGATTGTTCTCCCAGCTGATGAATTTCCCAAATCGAGTAAACAAATTTTCCTAATCTTTCTGTTCAAGCGCCATCTAC” the binding signal was 0.978 RPM ratio (pull-down/input).
For “GATGATTGTTCTCCCAGCTGATGAATTCGTTCCCTCGAGTAAACAAATTTTCCTAATCTTTCTGTTCAAGCGCCATCTAC”, the binding signal was 0.888 RPM ratio (pull-down/input).
With “GATGATTGTTCTCCCAGCTGATGAATTGCTGTTCTCGAGTAAACAAATTTTCCTAATCTTTCTGTTCAAGCGCCATCTAC” the binding signal was 1.21 RPM ratio (pull-down/input).
For “GATGATTGTTCTCCCAGCTGATGAATTCTTTCCCTCGAGTAAACAAATTTTCCTAATCTTTCTGTTCAAGCGCCATCTAC”, the binding signal was 0.841 RPM ratio (pull-down/input).
In the case of “GATGATTGTTCTCCCAGCTGATGAATTACAAAGCTCGAGTAAACAAATTTTCCTAATCTTTCTGTTCAAGCGCCATCTAC”, the binding signal is reported as 1.25 RPM ratio (pull-down/input).
With “GATGATTGTTCTCCCAGCTGATGAATTAGTAGCCTCGAGTAAACAAATTTTCCTAATCTTTCTGTTCAAGCGCCATCTAC” the binding signal was 0.933 RPM ratio (pull-down/input).
“GATGATTGTTCTCCCAGCTGATGAATTAAGAAGGTCGAGTAAACAAATTTTCCTAATCTTTCTGTTCAAGCGCCATCTAC” was tested, and the binding signal was 0.734 RPM ratio (pull-down/input).
In the case of “GATGATTGTTCTCCCAGCTGATGAATTGTGTGATTCGAGTAAACAAATTTTCCTAATCTTTCTGTTCAAGCGCCATCTAC”, the binding signal is reported as 1.2 RPM ratio (pull-down/input).
In the case of “GATGATTGTTCTCCCAGCTGATGAATTTATACAGTCGAGTAAACAAATTTTCCTAATCTTTCTGTTCAAGCGCCATCTAC”, the binding signal is reported as 1.14 RPM ratio (pull-down/input).
“GATGATTGTTCTCCCAGCTGATGAATTACGAAGGTCGAGTAAACAAATTTTCCTAATCTTTCTGTTCAAGCGCCATCTAC” was tested, and the binding signal was 0.909 RPM ratio (pull-down/input).
“GATGATTGTTCTCCCAGCTGATGAATTGCAGAGCTCGAGTAAACAAATTTTCCTAATCTTTCTGTTCAAGCGCCATCTAC” was tested, and the binding signal was 0.921 RPM ratio (pull-down/input).
With “GATGATTGTTCTCCCAGCTGATGAATTAATGACATCGAGTAAACAAATTTTCCTAATCTTTCTGTTCAAGCGCCATCTAC” the binding signal was 1.13 RPM ratio (pull-down/input).
For “GATGATTGTTCTCCCAGCTGATGAATTGTACCACTCGAGTAAACAAATTTTCCTAATCTTTCTGTTCAAGCGCCATCTAC”, the binding signal was 0.996 RPM ratio (pull-down/input).
In the case of “GATGATTGTTCTCCCAGCTGATGAATTTCCCGAATCGAGTAAACAAATTTTCCTAATCTTTCTGTTCAAGCGCCATCTAC”, the binding signal is reported as 0.935 RPM ratio (pull-down/input).
For “GATGATTGTTCTCCCAGCTGATGAATTTGGTGAATCGAGTAAACAAATTTTCCTAATCTTTCTGTTCAAGCGCCATCTAC”, the binding signal was 0.965 RPM ratio (pull-down/input).
